The supplement of paper PMC12217912
This is one part of the list. The full chains were built here from the parent and the listed change. Inactive controls read about 0.05.

B1: TEV protease; numbered along this chain (parent)
chain: MGESLFKGPRDYNPISSSICHLTNESDGHTTSLYGIGFGPFIITNKHLFRRNNGTLVVQSLHGVFKVKDTTTLQQHLVDGRDMIIIRMPKDFPPFPQKLKFREPQREERICLVTTNFQTKSMSSMVSDTSCTFPSGDGIFWKHWIQTKDGQCGSPLVSTRDGFIVGIHSASNFTNTNNYFTSVPKNFMELLTNQEAQQWVSGWRLNADSVLWGGHKVFMVKPEEPFQPVKEATQL

Variants of: B1
Experiment: raw area under fraction-flipped curve 0-4 h after induction (AUC4h, not background-subtracted), DNA-recorder readout of cleavage of the substrate (dimensionless); higher = more cleavage of the substrate by the protease variant
Conditions: temperature: 34 °C; time window: 0-4 h after rhamnose induction
Procedure: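 In vivo DNA recorder in E. coli TOP10(DE3) ΔrhaA at 34 °C. Each TEVp single-site mutant (parent TEVp 0) is paired with a single-site variant of the 7-mer TEVs (canonical ENLYFQ|S). The substrate sits between flexible linkers in a Bxb1-sfGFP-TEVs-SsrA fusion, so cleavage stabilises Bxb1 and speeds flipping of a recombination array, read by NGS. The value is the raw area under the fraction-flipped curve over 0-4 h after rhamnose induction (AUC4h), with ≥20 reads per time point. It is not background-subtracted; inactive controls average about 0.047.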
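Note: Bxb1 expression induced with 0.2% (w/v) L-rhamnose at OD600 near 0.5, cultures sampled hourly, flipped fraction per protease–substrate barcode pair counted by paired-end Illumina sequencing.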

Variant	area with substrate ENAYFQS	area with substrate ENCYFQS	area with substrate ENEYFQS	area with substrate ENFYFQS	area with substrate ENGYFQS	area with substrate ENIYFQS	area with substrate ENKYFQS	area with substrate ENMYFQS	area with substrate ENNYFQS	area with substrate ENQYFQS	area with substrate ENRYFQS	area with substrate ENSYFQS	area with substrate ENTYFQS	area with substrate ENYYFQS	area with substrate ENDYFQS	area with substrate ENHYFQS	area with substrate ENPYFQS	area with substrate ENVYFQS	area with substrate ENWYFQS
MGESLFKGPRDYNPISSSICHLTNESDGHTTSLYGIGFGPFIITNKHLFRRNNGTLVVQSLHGVFKVADTTTLQQHLVDGRDMIIIRMPKDFPPFPQKLKFREPQREERICLVTTNFQTKSMSSMVSDTSCTFPSGDGIFWKHWIQTKDGQCGSPLVSTRDGFIVGIHSASNFTNTNNYFTSVPKNFMELLTNQEAQQWVSGWRLNADSVLWGGHKVFMVKPEEPFQPVKEATQL [K68A]	0.072	0.0655	0.0596	0.0437	0.0659	0.113	0.0554	0.0926	0.0754	0.0605	0.049	0.0575	0.0628	0.0734					
MGESLFKGPRDYNPISSSICHLTNESDGHTTSLYGIGFGPFIITNKHLFRRNNGTLVVQSLHGVFKVKDRTTLQQHLVDGRDMIIIRMPKDFPPFPQKLKFREPQREERICLVTTNFQTKSMSSMVSDTSCTFPSGDGIFWKHWIQTKDGQCGSPLVSTRDGFIVGIHSASNFTNTNNYFTSVPKNFMELLTNQEAQQWVSGWRLNADSVLWGGHKVFMVKPEEPFQPVKEATQL [T70R]	0.0571	0.059	0.062	0.0663	0.0534	0.0822			0.0499	0.0527	0.0541		0.0526		0.0528	0.0613			
MGESLFKGPRDYNPISSSICHLTNESDGHTTSLYGIGFGPFIITNKHLFRRNNGTLVVQSLHGVFKVKDLTTLQQHLVDGRDMIIIRMPKDFPPFPQKLKFREPQREERICLVTTNFQTKSMSSMVSDTSCTFPSGDGIFWKHWIQTKDGQCGSPLVSTRDGFIVGIHSASNFTNTNNYFTSVPKNFMELLTNQEAQQWVSGWRLNADSVLWGGHKVFMVKPEEPFQPVKEATQL [T70L]	0.0649	0.0702		0.0648	0.0618	0.0808	0.077	0.071	0.0598	0.0483	0.038	0.0746	0.0568	0.0509	0.0591	0.0588	0.0619	0.0235	0.0607
MGESLFKGPRDYNPISSSICHLTNESDGHTTSLYGIGFGPFIITNKHLFRRNNGTLVVQSLHGVFKVKDTTTRQQHLVDGRDMIIIRMPKDFPPFPQKLKFREPQREERICLVTTNFQTKSMSSMVSDTSCTFPSGDGIFWKHWIQTKDGQCGSPLVSTRDGFIVGIHSASNFTNTNNYFTSVPKNFMELLTNQEAQQWVSGWRLNADSVLWGGHKVFMVKPEEPFQPVKEATQL [L73R]	0.061		0.0445			0.0539	0.0522		0.0586	0.0566	0.0452		0.0583			0.0446	0.0419	0.0373	0.0525
MGESLFKGPRDYNPISSSICHLTNESDGHTTSLYGIGFGPFIITNKHLFRRNNGTLVVQSLHGVFKVKDTTTEQQHLVDGRDMIIIRMPKDFPPFPQKLKFREPQREERICLVTTNFQTKSMSSMVSDTSCTFPSGDGIFWKHWIQTKDGQCGSPLVSTRDGFIVGIHSASNFTNTNNYFTSVPKNFMELLTNQEAQQWVSGWRLNADSVLWGGHKVFMVKPEEPFQPVKEATQL [L73E]	0.0596			0.0548	0.0623			0.0205	0.0385			0.0582			0.0394				
MGESLFKGPRDYNPISSSICHLTNESDGHTTSLYGIGFGPFIITNKHLFRRNNGTLVVQSLHGVNKVKDTTTLQQHLVDGRDMIIIRMPKDFPPFPQKLKFREPQREERICLVTTNFQTKSMSSMVSDTSCTFPSGDGIFWKHWIQTKDGQCGSPLVSTRDGFIVGIHSASNFTNTNNYFTSVPKNFMELLTNQEAQQWVSGWRLNADSVLWGGHKVFMVKPEEPFQPVKEATQL [F65N]	0.0556	0.0663		0.0381	0.0571					0.0584	0.0661	0.0601				0.0535	0.0611	0.0723	
MGESLFKGPRDYNPISSSICHLTNESDGHTTSLYGIGFGPFIITNKHLFRRNNGTLVVQSLHGVFKWKDTTTLQQHLVDGRDMIIIRMPKDFPPFPQKLKFREPQREERICLVTTNFQTKSMSSMVSDTSCTFPSGDGIFWKHWIQTKDGQCGSPLVSTRDGFIVGIHSASNFTNTNNYFTSVPKNFMELLTNQEAQQWVSGWRLNADSVLWGGHKVFMVKPEEPFQPVKEATQL [V67W]	0.0605	0.0559	0.0598	0.0892	0.0675		0.045		0.0576	0.0691	0.0597	0.0576	0.0571		0.0614	0.0408		0.0708	
MGESLFKGPRDYNPISSSICHLTNESDGHTTSLYGIGFGPFIITNKHLFRRNNGTLVVQSLHGVFKAKDTTTLQQHLVDGRDMIIIRMPKDFPPFPQKLKFREPQREERICLVTTNFQTKSMSSMVSDTSCTFPSGDGIFWKHWIQTKDGQCGSPLVSTRDGFIVGIHSASNFTNTNNYFTSVPKNFMELLTNQEAQQWVSGWRLNADSVLWGGHKVFMVKPEEPFQPVKEATQL [V67A]	0.0704		0.0417		0.0762			0.0536	0.0618	0.0488	0.0572	0.0307	0.0612	0.0466	0.0574	0.0549	0.06	0.0675	0.001
MGESLFKGPRDYNPISSSICHLTNESDGHTTSLYGIGFGPFIITNKHLFRRNNGTLVVQSLHGVFKSKDTTTLQQHLVDGRDMIIIRMPKDFPPFPQKLKFREPQREERICLVTTNFQTKSMSSMVSDTSCTFPSGDGIFWKHWIQTKDGQCGSPLVSTRDGFIVGIHSASNFTNTNNYFTSVPKNFMELLTNQEAQQWVSGWRLNADSVLWGGHKVFMVKPEEPFQPVKEATQL [V67S]	0.0563		0.0686	0.0348	0.0694		0.0802		0.0557	0.056	0.024	0.0443		0.0495	0.0567	0.0683		0.0769	0.041
